Experimental data: PubChem BioAssay AID1963576 (National Center for Advancing Translational Sciences (NCATS), 2024)
The campaign covered roughly 46,000 compounds. About 60 (0.1%) were called active. Roughly 3% stayed inconclusive and do not appear here. The call rests on the fitted dose curve; in most records, active means well fitted inhibition curve with a large enough effect; inconclusive means small, poorly fitted or top-dose-only effect; inactive means no such curve, though single readings can be large or run the other way. The list shows a part of the results.

assay: Primary qHTS assay for Inhibitors of ovarian cancer metastasis using an organotypic tumor microenvironment (TME) model.; further: nearly all actives have a fitted effect of over 65% in size;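 on activity change, negative = inhibition: plate controls were DMSO wells for no effect and tomatine positive control wells for full effect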; settings: SKOV3ip1-GFP adhesion/invasion on 3D omental model, fluorescence; series mostly up to 45.8 µM; activity change, negative = inhibition: at the top concentration
Summary of the method: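 A 3D layer of primary human omental fibroblasts, mesothelial cells, fibronectin and collagen I, grown 48 hr, received SKOV3ip1-GFP cells in serum-free medium plus compounds at 0.36-46 umol/L. After 2 hr RT and 16 hr 37 C, fixed adherent GFP cells were counted; normalized to DMSO and tomatine.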

Structure (SMILES)	activity change, negative = inhibition	outcome
Cc1ccc(S(=O)(=O)N2CCCc3cc(NS(=O)(=O)c4ccccc4)ccc32)cc1	inactive: -22.7%	
Cc1ccc(OCC(=O)N(Cc2nc(-c3ccccc3)no2)C(C)C)cc1C	inactive: -2.57%	
COC(=O)c1ccc([C@H]2Nc3ccc(S(=O)(=O)Nc4ccc(F)cc4)cc3[C@H]3C=CC[C@H]32)cc1	inactive: 13.6%	
COc1ccccc1N1CCN(c2c(CN3CCCC3)c(=O)oc3ccccc23)CC1	inactive: -2.24%	
CCOc1ccc(S(=O)(=O)N(CC(=O)NCCc2ccc(OC)cc2)c2ccccc2)cc1		inactive
Cc1cc(C)c(/C=C/c2onc(C)c2S(=O)(=O)N2CCC(C(=O)Nc3cccc(C)c3C)CC2)c(C)c1		inactive
COc1ccccc1-c1noc(CSc2nnc(-c3ccccc3)n2-c2ccc(C)c(C)c2)n1	inactive: -7.72%	
Cc1cc(OCC(=O)Nc2sc3c(c2C#N)CCC(C)C3)ccc1Cl (configuration not stated)	inactive: 1.03%	
Cc1ccc2[nH]c(=O)c3cc(C(=O)NCc4cccc(Cl)c4)sc3c2c1	inactive: 8.92%	
CCOC(=O)CNC(=O)Nc1cc(C(=O)NCc2ccc(C(C)C)cc2)ccc1N1CCCC1	inactive: 3.96%	
O=C(C1CCCN(S(=O)(=O)c2cccc3nonc23)C1)N1CCN(c2cccc(C(F)(F)F)c2)CC1 (configuration not stated)	inactive: 46.8%	
O=C(CSc1ncc(-c2ccc(Cl)cc2)[nH]1)Nc1ccccc1F	inactive: 13.8%	
Cc1ccc(S(=O)(=O)N2CCCC2C(=O)Nc2ccc(Br)cc2)cc1 (configuration not stated)		inactive
CCOc1ccc(C(=O)c2cn(Cc3cccc(OC)c3)c3cc4c(cc3c2=O)OCO4)cc1	inactive: -3.19%	
CCOC(=O)c1c(C)oc2nc(C)nc(N(C)Cc3ccccc3)c12	inactive: 0.39%	
CC(=O)c1ccc(NC(=O)CSc2nc(-c3ccccc3C)nc3c2c(=O)n(C)c(=O)n3C)cc1	inactive: 1.6%	
CON=C(C(=O)N[C@@H]1C(=O)N2C(C(=O)O)=C(Cn3ccc(=N)n3CCO)CS[C@H]12)c1csc(N)n1	inactive: -9.36%	
O=c1cc(-c2ccccc2)n2c(SCc3ccccc3Cl)nnc2[nH]1	inactive: 10.2%	
COc1ccc(-n2c(=O)c3c4c(sc3n(C)c2=O)CN(C(C)=O)CC4)cc1	inactive: 3.95%	
CCOc1ccc(Nc2c(S(=O)(=O)c3ccc(C)cc3)cnc3ccc(F)cc23)cc1	inactive: -28.3%	
COc1cccc(CNC(=O)c2nc(Cn3nc(C)c(Br)c3C)no2)c1	inactive: -13.6%	
Cc1ccc2oc(C(=O)N(Cc3sccc3C)C3CCS(=O)(=O)C3)c(C)c2c1 (configuration not stated)		inactive
COc1ccccc1CNC(=O)C(=O)NCC(c1cccs1)S(=O)(=O)c1cccs1 (configuration not stated)	inactive: -6.56%	
CCOc1ccc(NC(=O)c2cc(S(=O)(=O)N3CCN(c4ccccc4F)CC3)ccc2F)cc1	inactive: 13.5%	
Cc1ccc2[nH]c(=O)c3cc(C(=O)NC4CCC(C)CC4)sc3c2c1 (configuration not stated)	inactive: 4.18%	

Structure (SMILES)	activity change, negative = inhibition	outcome
CCCCN(C)C(=O)CSc1nc2ccccc2nc1Cc1ccc(C)cc1	inactive: 0.205%	
Cc1c(Cl)cccc1NC(=O)CSc1nc(=O)n(Cc2ccco2)c2c1CCC2	inactive: 8.29%	
Cc1ccc(CCNC(=O)CN(c2ccc(C)cc2)S(=O)(=O)N(C)C)cc1	inactive: 4%	
CC(C)OCc1cc(CN2CCN(c3cccc(C(F)(F)F)c3)CC2)c(O)c2ncccc12	inactive: -4.61%	
COc1cccc2c1cc1c(=O)n(CC(=O)NCc3ccco3)nc(C)n12	inactive: -5.45%	
COc1ccccc1C(=O)Nc1nnc2n1CCS2		inactive
Cc1cccc(N(C)S(=O)(=O)c2cc3[nH]c(=O)c(=O)[nH]c3cc2C)c1	inactive: 11.3%	
CCSc1nnc2c(n1)OC(c1ccc(OC)c(OC)c1)N(C(C)=O)c1ccccc1-2 (configuration not stated)	inactive: -12%	
CN(C)c1ccc(CNC(=O)C2CCN(Cc3cc4ccccc4n3Cc3ccccc3)CC2)cc1	inactive: -0.164%	
CCCCC(=O)Nc1nnc(S(=O)(=O)N(C)Cc2ccccc2)s1	inactive: 5.77%	
CCCCCNC(=O)C1CCC(Cn2c(=O)c3sccc3n(CC(=O)NCc3cccc(OC)c3OC)c2=O)CC1 (configuration not stated)	inactive: 2.47%	
Cc1ccc(-c2noc(CSc3nnc(C)n3-c3ccc(C)c(C)c3)n2)cc1	inactive: 31.1%	
COc1ccc(Cl)cc1NC(=O)CSc1ccc2nnc(CCNS(=O)(=O)c3ccccc3)n2n1	inactive: -0.167%	
O=C1C(=O)N(C2CCN(C(=O)c3ccccc3F)CC2)CCN1Cc1ccc(F)cc1		inactive
NS(=O)(=O)c1cc2c(cc1Cl)NCNS2(=O)=O	inactive: 6.43%	
COc1cccc(CNS(=O)(=O)c2c(C(=O)N3CCC(C)CC3)c(C)n(C)c2C)c1		inactive
O=C(COc1ccc(F)cc1)OCc1cc(=O)n2nc(-c3cccs3)sc2n1	inactive: -0.432%	
COc1ccc(/C=C(\C#N)c2nc3ccccc3c(=O)[nH]2)cc1OC	inactive: 0.841%	
CCOc1ccc(S(=O)(=O)Nc2ccc3oc4c(c3c2)CC(C)CC4)cc1 (configuration not stated)	inactive: 14.6%	
COc1ccccc1CNC(=O)COCc1cc(-c2ccc3c(c2)OCO3)on1	inactive: 13.3%	
COc1ccc(C)c2sc(NC(=O)c3ccc(S(=O)(=O)N4CCCC4)cc3)nc12	inactive: 22.8%	
CCOc1ccccc1CNC(=O)Cn1nc(N2CCN(c3ccccc3)CC2)ccc1=O	inactive: 13.5%	
COc1ccc(C(=O)NCc2ccc3c(c2)CCN3C(=O)c2ccc(F)cc2)cc1	inactive: -3.99%	
COc1cc(NS(=O)(=O)c2c(C)nc3sc(C)c(C)n3c2=O)cc(OC)c1	inactive: 3.85%	
CCc1ccc(NC(=O)C2=CC(c3cccs3)=NS(=O)(=O)N2C)cc1	inactive: -20.6%	

Structure (SMILES)	activity change, negative = inhibition	outcome
CN(C)c1ccc(CNC(=O)C2COc3ccccc3C2)cc1 (configuration not stated)	inactive: -1.94%	
O=C(CSc1ncccc1C(=O)Oc1ccccc1Cl)Nc1ccccc1Cl	inactive: -0.252%	
CCN1CCN(c2ncnc3c2cnn3-c2cccc(C)c2)CC1		inactive
O=C1c2cccc(O)c2C(=O)c2c(O)cc(CO)cc21	inactive: -6.93%	
CN(C)CCC=C1c2ccccc2C=Cc2ccccc21	inactive: -7.97%	
O=C(NCc1ccco1)c1ccc(Cn2c(SCc3ccccc3F)nc3cccnc32)cc1	inactive: -23.7%	
O=C(NCc1ccc(Cl)cc1)NC1COc2ccccc2C1 (configuration not stated)	inactive: 2.59%	
Cc1c(C(=O)OCc2ccccc2)[nH]c2c1C(=O)CC(c1ccc(Cl)cc1)C2 (configuration not stated)		inactive
CC1CCN(S(=O)(=O)c2ccc3c(c2)N(CC(=O)NCC(C)c2ccccc2)C(=O)CO3)CC1 (configuration not stated)	inactive: 3.06%	
Cn1nnnc1SCCCNCc1cccc(OCc2ccccc2)c1	inactive: -0.082%	
Cc1ccc(-c2cc(C(F)(F)F)n3ncc(-c4ccccc4)c3n2)cc1	inactive: 1.38%	
CCOc1ccc(C(=O)c2oc3ccccc3c2NC(=O)c2cc(-c3ccc(C)cc3)on2)cc1	inactive: 4.8%	
CN(C)CCc1c[nH]c2ccc(C[C@H]3COC(=O)N3)cc12	inactive: -0.694%	
CCOc1ccccc1NC(=O)C1CCCN1S(=O)(=O)c1ccc2nc(-c3ccccc3)[nH]c2c1 (configuration not stated)	inactive: -14.5%	
COc1ccc(CCNC(=O)Cn2cc(S(=O)(=O)Cc3ccc(F)cc3)c3ccccc32)cc1OC	inactive: 0.175%	
O=C(NC1CCCCC1)c1ccc2c(c1)N(Cc1ccccc1Cl)C(=O)c1ccccc1S2	inactive: -3.36%	
CC(C)c1ccc(NC(=O)CCS(=O)(=O)c2ccc3c(c2)CC(=O)N3C)cc1		inactive
O=S(=O)(c1ccccc1)c1nnn2c1nc(NCc1ccccc1)c1cc(Cl)ccc12	inactive: -1.06%	
CCCCCn1cc2c(c1-c1ccccc1Br)c(=O)n(C)c(=O)n2C		inactive
O=C(Nc1cccc(F)c1)c1oc2ccccc2c1NC(=O)C12CC3CC(CC(C3)C1)C2		inactive
Cc1ccc2occ(CC(=O)Nc3ccc(S(=O)(=O)N4CCC(C)CC4)cc3)c2c1	inactive: -3.22%	
CCOc1ccc2ncc3c(-c4cccc(OC)c4)nn(-c4ccccc4)c3c2c1		inactive
Cc1nc2nc(C)c(CCC(=O)NCc3ccccc3)c(C)n2n1	inactive: -15.7%	
CCOc1ccccc1CNCCSc1nnnn1C		inactive
CCOCCn1ccc2c(OCC(=O)Nc3cccc(F)c3)cccc2c1=O	inactive: 5.41%	

Structure (SMILES)	activity change, negative = inhibition	outcome
CCC(C)NC(=O)Cn1c(=O)n(Cc2ccc(C(=O)NCc3ccc(C)cc3)cc2)c(=O)c2ccccc21 (configuration not stated)	inactive: -0.459%	
COc1cccc(Cc2nc3ccccc3nc2SCC(=O)Nc2cc(OC)ccc2OC)c1		inactive
COc1ccc(OC)c2sc(N3CCN(C(=O)C4COc5ccccc5O4)CC3)nc12 (configuration not stated)		inactive
CCN(CCCNC(=O)CN1N=C(c2ccccc2)CCC1=O)c1ccccc1		inactive
COc1ccc(C)cc1Nc1ncnc2c1c(-c1ccccc1)cn2-c1ccc(C)cc1	inactive: 7.11%	
O=c1c2sc3ccccc3c2n(Cc2ccccc2)c(=O)n1CCc1ccccc1		inactive
Cc1ccc(C2c3c(oc4ccccc4c3=O)C(=O)N2c2nnc(C)s2)cc1 (configuration not stated)	inactive: 4.57%	
CC(C)CCNC(=O)C(Cc1ccccc1)NS(=O)(=O)c1ccc2c(c1)c(=O)n(C)c(=O)n2C (configuration not stated)		inactive
CCCOc1ccc(-c2cc(C(F)(F)F)c(C#N)c(SCCC(=O)O)n2)cc1	inactive: -0.94%	
CCCN(CCC)C(=O)Cn1c(=O)n(CCCCCC(=O)NCc2ccccc2Cl)c(=O)c2sccc21		inactive
Cc1ccc(S(=O)(=O)C(CNC(=O)COc2ccccc2)c2ccco2)cc1 (configuration not stated)	inactive: 0.0982%	
O=C(Nc1ccccc1C(=O)OCc1cc(=O)n2nc(C3CC3)sc2n1)c1cccc(F)c1	inactive: 0.634%	
Cc1ccc(CNC(=O)CSc2nc3n[nH]c(C)c3c(=N)n2-c2ccccc2Cl)cc1	inactive: -17.1%	
Cc1cc(C)n(-c2nc3cc(Cl)ccc3nc2N2CCN(c3ccccc3F)CC2)n1	inactive: -1.05%	
CS(=O)(=O)N1CCc2cc(C(=O)Nc3ccc(C(F)(F)F)cc3)ccc21		inactive
COCCNC(=O)c1ccc(-c2nc(CS(=O)(=O)c3ccccc3)c(C)o2)cc1	inactive: 10.8%	
CN1C(=O)C2(SCC(=O)N2c2ccc(Cl)cc2)c2ccccc21 (configuration not stated)	inactive: 4.12%	
Cc1ccc(CCNC(=O)c2ccc3c(c2)nc2n3CCOC2)cc1	inactive: -20.7%	
CCOCCCn1c(SCC(=O)Nc2ccccc2Cl)nc2c(oc3ccccc32)c1=O		inactive
Cc1ccccc1OCCCCn1nnc2sc3c(c2c1=O)CCC(C)C3 (configuration not stated)		inactive
Cc1nc2sccn2c(=O)c1S(=O)(=O)Nc1cc(C(F)(F)F)ccc1Cl	inactive: 1.28%	
O=C(Nc1ccc(F)c(Cl)c1)N1CCC(CN2CCOCC2)CC1	inactive: -9.91%	
